Measurements published in the supplement of paper PMC8674133.
Positions count from the first letter of the chain named. Recombinant human monoclonal antibodies (heavy:light variable regions). ELISA EC50 on the named antigen, from 10 µg/ml down; IC50 / IC90 against spike pseudovirus on 293T-ACE2 cells, 48 h; lower = stronger. Calls: IC50 above 1,000 ng/ml = non-neutralizing; EC50 above 2,000 ng/ml = non-binder. The source prints 1000 for neutralization that was not reached; it is given as >1000 ng/ml. A few antibodies were first reported in earlier work of the same group.

B1: C2111 (protein)
chain 1: VQLVESGGGVVQPGRSLRLSCAASGFTFSSYAMHWVRQAPGKGLEWVAVVSYDGSNKYYADSVKGRFTISRDNSKNTLYLQMNSLRAEDTAVYYCARDMGSAMVDYFDYWGQGTLVTVSS
chain 2: DIQLTQSPSSLSASVGDRVTITCRASQSISSYLSWFQQKPGKAPKLLIYAASSLQSGVPSRFSGSGSGTDFTLTISSLQPEDFATYYCQQSYSTLSYTFGQGTKLEIK
B2: C2206 (protein)
chain 1: VQLVESGGGVVQPGRSLRLSCAASGFTFSQYGMHWVRQAPGKGLEWVAVISYDGTDKYYADSVKGRFTISRDNSKNTLSLQMNSLRAEDTAVYYCAKLGGPYCSGGNCYSGYFDYWGQGTLVTVSS
chain 2: IRMTQSPSSLSASVGDRVTITCQASQDISNYLNWYQQKPGKAPKLLIYDASNLETGVPSRFSGSGSGTDFTFTISSLQPEDIATFYCQQYDNLPLTFGGRTKVEIK
B3: C2413 (protein)
chain 1: QVQLQESGPGLLKPSQTLSLTCTVSGGSISRGGFYWSWIRHHPVKGLEWIGYIYYSGSTYYNPSLKSRVTISVDTSKNQFSLKLSSVTAADTAVYYCARDYGGNANYFHYWGQGTLVTVSS
chain 2: B2 chain 2 with L10Q, N33S, P39A, F85Y, D91A, R100G
B4: C2473 (protein)
chain 1: EVQLVESGGGLMQPGGSLRLSCAASGVIVSRNYMRWVRQAPGKGLEWVSLIYSGGSTFYSDSVKGRFTISRDTSKNTLYLQMNSLRAEDTAVYYCARDLLEAGGMDVWGQGTTVTVSS
chain 2: DIQLTQSPSFLSASVGDRVTITCRASQGISSYLAWYQQKQGKAPKILVYAASTLQSGVPSRFSGSGSGTEFTLTISSLQPEDFATYYCQHLNSHPLTFGGGTKVEIK
B5: C2113 (protein)
chain 1: VQLVESGGGLIQPGGSLRLSCAASGFTVSSNYMSWVRQAPGKGLEWVSVIYSGGSTYYADSVKGRFTISRDNSKNTLYLQMNSLRAEDTAVYYCARDFGEFYFDYWGQGTLVTVSS
chain 2: EIVLTQSPGTLSLSPGERATLSCRASQTVSSNYLAWYKQKPGQAPRLLIYGAASRATGIPDRFSGSGSGTDFTLTISRLEPEDFAVYYCQQYGSSPRTFGQGTKVEIK
B6: C2132 (protein)
chain 1: QLQLQESGPGLVKPSETLSLTCIVSGGSINSTTYYWDWIRQSPGKGLEWIGSIFYTGITYYSPSLKTRVTISVDTSKNQFSLRLNSMTAADTAVYYCARRLRQLWFGPWFDPWGQGTLVTVSS
chain 2: QSALTQPASVSGSPGQSITISCTGTSSDVGGYNYVSWYQQHPGKAPKLMIYEVSNRPSGVSNRFSGSKSGNTASLTISGLQAEDEADYYCSSYTSSSTPVVFGGGTKLTVL
B7: C2109 (protein)
chain 1: EVQLVESGGGLVQPGRSLRLSCAASGFTFDDYAMHWVRQAPGKGLEWVSGISWNSGSIGYADSVKGRFTISRDNAKNSLYLQMNSLRAEDTALYYCAKDRTDRLLTFDYWGQGTLVTVSS
chain 2: DIQMTQSPSTLSASVGDRVTITCRASQSFSSWLAWYQQKPGKAPKLLIFDASSLESGVPSRFSGSGSGTEFTLTISSLQPDDFATYYCQQYNSYPLTFGGGTKVEIK
B8: C2110 (protein)
chain 1: QLQLQESGPGLVKPSETLSLTCTVSGGSISSSSYYWGWIRQPPGKGLEWIGSIYYIGNTYYNPSLKSRVTISVDTSKNQFSLKLSSVTAADTAVYYCARHETDYGGVAGHFQHWGQGTLVTVSS
chain 2: QSALTQPASVSGSPGQSITISCTGTSSDVGSYNLVSWYQQHPGKAPKLMIYEGSKRPSGVSNRFSGSKSGNTASLTISGLQAEDEADYYCCSYAGSYVVFGGGTKLTVL
B9: C2456 (protein)
chain 1: QVQLVQSGAEVKKPGASVKVSCKTSGYNFKSFGISWVRQAPGQGLEWMGWISPYNGNTKYVQKFRGRVTMTTDTSTSTAYMELRSLRSDDTAVYYCARDGELMGWFDPWGQGTLVTVSS
chain 2: QSALTQPASETGSPGQSITISCSGTSSDVGSYNLVSWYQQHPGQPPKLMIYKDTERPSGISNRFSGSKSGNTASLTISGLQAEDEADYYCCSYAGSSTWVFGGGTKLTVL
B10: C2136 (protein)
chain 1: EVQLVESGGGLVQPGRSLRLSCGASGFTFEDYGMHWVRQAPGKGLEWVSGISWNGGIIGSADSVKGRFTISRDNAKNSLYLQMISLRPEDTAVYYCAKDISVLDYGVYGAIDVWGQGTMVTVSS
chain 2: EIVLTQSPGTLSLSPGERATLSCRASQSVSSSYLAWYQQKPGQAPRLLIYGATSRATGIPDRFSGSGSGTDFTLTISRLEPEDFAVYYCQQYSGPYTFGQGTKLEIK
B11: C2412 (protein)
chain 1: QVQLQESGPGLVKPSQTLSLTCTVSGGSISSGGYYWSWIRQHPGKGLEWIGYIYYTGITYYNPSLKGRITISIDTSKNQFSLNLSSVTAADTAVYSCAGSSGWFGEFFDYWGQGTLVTVSS
chain 2: EIVLTQSPATLSLSPGERATLSCRASQSVRNYLAWYQQKPGQAPRLLIYDASNRATGIPARFSGSGSGTDFTLTISSLEPEDFAVYYCQQRFNWPPITFGQGTRLEIK
B12: C2131 (protein)
chain 1: EVQLLESGGGLVQPGGSLRLSCAASGFTFSRYAMSWVRLAPGRGLEWVSGIGGSGESTYYTDSVKGRFIISRDNSKDTLYLQMHSLRAEDTAVYYCAKGKHWNDDYFEYWGQGTLVTVSS
chain 2: B11 chain 2 with R30S, N31S, F92S, P96G, I97F, Q101P, R104K, L105V, E106D
B13: C2106 (protein)
chain 1: QLQLQESGPGLVKPSETLSLTCTVSGGSISSSSYYWGWIRQPPGKGLEWIGSIYYSGSTYYNPSLKSRVTISVDTSKNQFSLKLSSVTAADTAVYYCARLPYYYGSGSYYNRDYYYYGMDVWGQGTTVTVSS
chain 2: B11 chain 2 with R30S, N31S, F92S, P96L, I97L, T98A, Q101P, R104K, L105V, E106D
B14: C2458 (protein)
chain 1: VQLVESGGGVVQPGRSLRLSCTGSGFTFSTYGMHWVRQAPGKGLEYVAFTSFDGSNKYYAGSVKGRFTISRDNSKNTLYLQMNSLRAEDTAVYFCAKDPMPGAVATTGSFDYWGQGTLVTVSS
chain 2: SYELTQPPSVSVAPGQTARITCGANNIGSKSVHWYQQKPGQAPVLVVYDDSDRPSGIPERFSGSNSGNTATLTISRVEAGDEADYYCQVWDSSSDPHWVFGGGTKLTVL
B15: C2107 (protein)
chain 1: B12 chain 1
chain 2: DIQMTQSPSPLSASVGDRVTITCRASQSITIWLAWYQQKPGKAPKLLIYDASTLESGVPSRFSGSGSGTEFTLTISSLQVDDFATYYCQQYNDFPWTFGQGTKVEIK
B16: C2210 (protein)
chain 1: EVQLVESGGGLVQPGRSLRLSCAASGFTFDDYAMHWVRQAPGKGLEWVSGISWNSGTIGYADSVKGRFTISRDNAKNSLYLQMNSLRAEDTAFYYCAKDYCGGDCYSPTRGAGYGMDVWGQGTTVTVSS
chain 2: QSALTQPASVSGSPGQSITISCTGTSSDVGGYNYVSWYQQHPGKAPKLMIYDVSNRPSGVSNRFSGSKSGNTASLTISGLQAEDEADYYCSSYTSSSGVVFGGGTKLTVL

Columns and labels:
[1] = molecular target: SARS-CoV-2 Wuhan-Hu-1 spike pseudovirus; assay: pseudovirus neutralization IC50; higher = weaker neutralization
Experimental: (§1)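 Single-round luciferase reporter pseudovirus mixed with antibody dilutions and put on 293T-ACE2 cells for 48 h; signal relative to no-antibody wells, four-parameter fit.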

[2] = molecular target: SARS-CoV-2 Wuhan-Hu-1 spike pseudovirus; assay: pseudovirus neutralization IC90; higher = weaker neutralization
Experimental: as §1

[3] = molecular target: SARS-CoV-2 Wuhan-Hu-1 spike receptor-binding domain; assay: ELISA binding EC50; higher = weaker binding; ELISA of recombinant human antibody on coated antigen, from 10 µg/ml in fourfold dilutions; four-parameter fit.

Binder | pseudovirus neutralization IC50 [1] [µg/mL] | pseudovirus neutralization IC90 [2] [µg/mL] | ELISA binding EC50 [3] [µg/mL]
B1 | > 1 | > 1 | 0.00173
B2 | > 1 | > 1 | 0.00225
B3 | > 1 | > 1 | 0.00648
B4 | 0.00207 | 0.143 | 0.00148
B5 | 0.0651 | 0.471 | 0.00185
B6 | > 1 | > 1 | > 10
B7 | 0.849 | > 1 | 0.00184
B8 | 0.118 | > 1 | 0.00256
B9 | 0.00187 | 0.00978 | 0.00134
B10 | > 1 | > 1 | 0.00121
B11 | > 1 | > 1 | 0.00323
B12 | > 1 | > 1 | > 10
B13 | > 1 | > 1 | 0.0683
B14 | 0.296 | > 1 | 0.00229
B15 | > 1 | > 1 | 0.00361
B16 | 0.244 | > 1 | 0.00144
